For 31 molecules, binding signal results are on record in PMC9911399, “Two distinct binding modes provide the RNA-binding protein RbFox with extraordinary sequence specificity”.

Sequences and labels used below:
T1: RBFOX1 RRM RbFoxmut (Fox-RRM*) (Homo sapiens, UniProt Q9NWB1 109-208, R118D;E147R;N151S;E152T)
T1 sequence: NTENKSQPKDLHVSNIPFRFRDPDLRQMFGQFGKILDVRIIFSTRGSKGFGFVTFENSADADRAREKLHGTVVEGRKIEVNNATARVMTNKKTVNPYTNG

B1: CUCUUUC (DNA:RNA)
RNA: GGGAGACCGGAAUUCAGAUUGUCCCUCUUUCUUAAAUCCCGUCGUAGCCACCA
DNA 1: CAATCTGAATTCCGGTCTCCC
DNA 2: TGGTGGCTACGACGGGATT
B2: CGUAUGA (DNA:RNA)
RNA: B1 RNA with U26G, C27U, U28A, U30G, C31A
DNA 1: CAATCTGAATTCCGGTCTCCC
DNA 2: TGGTGGCTACGACGGGATT
B3: UACGUAA (DNA:RNA)
RNA: B1 RNA with C25U, U26A, U28G, U30A, C31A
DNA 1: CAATCTGAATTCCGGTCTCCC
DNA 2: TGGTGGCTACGACGGGATT
B4: AAGUGUC (DNA:RNA)
RNA: B1 RNA with C25A, U26A, C27G, U29G
DNA 1: CAATCTGAATTCCGGTCTCCC
DNA 2: TGGTGGCTACGACGGGATT
B5: UGGAACG (DNA:RNA)
RNA: GGGAGACCGGAAUUCAGAUUGUCCUGGAACGUUAAAUCCCGUCGUAGCCACCA
DNA 1: CAATCTGAATTCCGGTCTCCC
DNA 2: TGGTGGCTACGACGGGATT
B6: UCCACCG (DNA:RNA)
RNA: B5 RNA with G26C, G27C, A29C
DNA 1: CAATCTGAATTCCGGTCTCCC
DNA 2: TGGTGGCTACGACGGGATT
B7: CCCGGCC (DNA:RNA)
RNA: B1 RNA with U26C, U28G, U29G, U30C
DNA 1: CAATCTGAATTCCGGTCTCCC
DNA 2: TGGTGGCTACGACGGGATT
B8: CUCUGCA (DNA:RNA)
RNA: B1 RNA with U29G, U30C, C31A
DNA 1: CAATCTGAATTCCGGTCTCCC
DNA 2: TGGTGGCTACGACGGGATT
B9: GCAUGGA (DNA:RNA)
RNA: B1 RNA with C25G, U26C, C27A, U29G, U30G, C31A
DNA 1: CAATCTGAATTCCGGTCTCCC
DNA 2: TGGTGGCTACGACGGGATT
B10: CGCCCGG (DNA:RNA)
RNA: B1 RNA with U26G, U28C, U29C, U30G, C31G
DNA 1: CAATCTGAATTCCGGTCTCCC
DNA 2: TGGTGGCTACGACGGGATT
B11: ACCAUGG (DNA:RNA)
RNA: B1 RNA with C25A, U26C, U28A, U30G, C31G
DNA 1: CAATCTGAATTCCGGTCTCCC
DNA 2: TGGTGGCTACGACGGGATT
B12: CAUGGGA (DNA:RNA)
RNA: B1 RNA with U26A, C27U, U28G, U29G, U30G, C31A
DNA 1: CAATCTGAATTCCGGTCTCCC
DNA 2: TGGTGGCTACGACGGGATT
B13: CAUGUAU (DNA:RNA)
RNA: B1 RNA with U26A, C27U, U28G, U30A, C31U
DNA 1: CAATCTGAATTCCGGTCTCCC
DNA 2: TGGTGGCTACGACGGGATT
B14: CACAGAG (DNA:RNA)
RNA: B1 RNA with U26A, U28A, U29G, U30A, C31G
DNA 1: CAATCTGAATTCCGGTCTCCC
DNA 2: TGGTGGCTACGACGGGATT
B15: GCUACCG (DNA:RNA)
RNA: B5 RNA with U25G, G26C, G27U, A29C
DNA 1: CAATCTGAATTCCGGTCTCCC
DNA 2: TGGTGGCTACGACGGGATT
B16: AGGGAAC (DNA:RNA)
RNA: B5 RNA with U25A, A28G, C30A, G31C
DNA 1: CAATCTGAATTCCGGTCTCCC
DNA 2: TGGTGGCTACGACGGGATT
B17: CGUCCGC (DNA:RNA)
RNA: B1 RNA with U26G, C27U, U28C, U29C, U30G
DNA 1: CAATCTGAATTCCGGTCTCCC
DNA 2: TGGTGGCTACGACGGGATT
B18: UAGAUCC (DNA:RNA)
RNA: B5 RNA with G26A, A29U, G31C
DNA 1: CAATCTGAATTCCGGTCTCCC
DNA 2: TGGTGGCTACGACGGGATT
B19: CAAGAGG (DNA:RNA)
RNA: B5 RNA with U25C, G26A, G27A, A28G, C30G
DNA 1: CAATCTGAATTCCGGTCTCCC
DNA 2: TGGTGGCTACGACGGGATT
B20: CGUGAUG (DNA:RNA)
RNA: B5 RNA with U25C, G27U, A28G, C30U
DNA 1: CAATCTGAATTCCGGTCTCCC
DNA 2: TGGTGGCTACGACGGGATT
B21: GUCGUUA (DNA:RNA)
RNA: B1 RNA with C25G, U28G, C31A
DNA 1: CAATCTGAATTCCGGTCTCCC
DNA 2: TGGTGGCTACGACGGGATT
B22: CGGUCAU (DNA:RNA)
RNA: B1 RNA with U26G, C27G, U29C, U30A, C31U
DNA 1: CAATCTGAATTCCGGTCTCCC
DNA 2: TGGTGGCTACGACGGGATT
B23: UCCAUCC (DNA:RNA)
RNA: B1 RNA with C25U, U26C, U28A, U30C
DNA 1: CAATCTGAATTCCGGTCTCCC
DNA 2: TGGTGGCTACGACGGGATT
B24: CACACCG (DNA:RNA)
RNA: B5 RNA with U25C, G26A, G27C, A29C
DNA 1: CAATCTGAATTCCGGTCTCCC
DNA 2: TGGTGGCTACGACGGGATT
B25: AUCGGGU (DNA:RNA)
RNA: B1 RNA with C25A, U28G, U29G, U30G, C31U
DNA 1: CAATCTGAATTCCGGTCTCCC
DNA 2: TGGTGGCTACGACGGGATT
B26: AUCCAGG (DNA:RNA)
RNA: B1 RNA with C25A, U28C, U29A, U30G, C31G
DNA 1: CAATCTGAATTCCGGTCTCCC
DNA 2: TGGTGGCTACGACGGGATT
B27: GAGGAAA (DNA:RNA)
RNA: B5 RNA with U25G, G26A, A28G, C30A, G31A
DNA 1: CAATCTGAATTCCGGTCTCCC
DNA 2: TGGTGGCTACGACGGGATT
B28: UAAAGUA (DNA:RNA)
RNA: B5 RNA with G26A, G27A, A29G, C30U, G31A
DNA 1: CAATCTGAATTCCGGTCTCCC
DNA 2: TGGTGGCTACGACGGGATT
B29: GCUUUGC (DNA:RNA)
RNA: B1 RNA with C25G, U26C, C27U, U30G
DNA 1: CAATCTGAATTCCGGTCTCCC
DNA 2: TGGTGGCTACGACGGGATT
B30: AAAUUUU (DNA:RNA)
RNA: B1 RNA with C25A, U26A, C27A, C31U
DNA 1: CAATCTGAATTCCGGTCTCCC
DNA 2: TGGTGGCTACGACGGGATT
B31: AUUAUUU (DNA:RNA)
RNA: B1 RNA with C25A, C27U, U28A, C31U
DNA 1: CAATCTGAATTCCGGTCTCCC
DNA 2: TGGTGGCTACGACGGGATT

Substitutions are numbered along the chain they refer to; changes in the protein carry UniProt numbers. Some of the results follow.

For this experiment, the target named is T1, RBFOX1 RRM RbFoxmut (Fox-RRM*). The experiment can be described thus: EMSA; HiTS-Eq, 1 nM pool, 10 min; buffer printed only for the single-RNA assays: 10 mM Tris pH 7.5, 150 mM NaCl, 3.4 mM EDTA, 0.001% NP-40, 30 C. The following applies: tags: His6 N-terminal (pET28a); label: 5' 32P. The method in brief: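 Purified wild-type or mutant RbFox RRM at increasing concentrations was equilibrated with 1 nM of 5′-radiolabelled RNA carrying 7 randomized nucleotides for 10 min in 50 µL. Unbound RNA was separated by 8% native PAGE and sequenced. Relative association constants came from read-count changes of each RNA species compared with the control reaction, normalised to the cognate motif.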
Consider B1, for which the binding signal was 0.0662 KA relative to UGCAUGU.
With B2 the figure was 0.258 KA relative to UGCAUGU; with B3, 0.0898 KA relative to UGCAUGU; with B4, 0.176 KA relative to UGCAUGU.
Regarding B5, the binding signal is 0.84 KA relative to UGCAUGU.
With B6 the figure was 0.0787 KA relative to UGCAUGU; with B7, 0.138 KA relative to UGCAUGU.
With B8 the figure was 0.173 KA relative to UGCAUGU.
B9: the binding signal was 0.23 KA relative to UGCAUGU.
Then B10, with 0.063 KA relative to UGCAUGU; and B11, with 0.0839 KA relative to UGCAUGU; and B12, with 0.0687 KA relative to UGCAUGU.
Regarding B13, the binding signal is 0.154 KA relative to UGCAUGU.
Then B14, with 0.124 KA relative to UGCAUGU; and B15, with 0.0935 KA relative to UGCAUGU; and B16, with 0.0944 KA relative to UGCAUGU.
Turning to B17, the binding signal is 0.0851 KA relative to UGCAUGU.
Then B18, with 0.0627 KA relative to UGCAUGU; and B19, with 0.0729 KA relative to UGCAUGU.
Then B20, with 0.268 KA relative to UGCAUGU; and B21, with 0.134 KA relative to UGCAUGU; and B22, with 0.0731 KA relative to UGCAUGU.
With B23 the figure was 0.106 KA relative to UGCAUGU; with B24, 0.12 KA relative to UGCAUGU; with B25, 0.155 KA relative to UGCAUGU.
B26: the binding signal was 0.0808 KA relative to UGCAUGU.
In the case of B27, the binding signal was 0.0681 KA relative to UGCAUGU.
With B28 the figure was 0.11 KA relative to UGCAUGU; with B29, 0.0981 KA relative to UGCAUGU.
B30: the binding signal is 0.0977 KA relative to UGCAUGU.
With B31 the figure was 0.13 KA relative to UGCAUGU.
